The results in this text go back to the supplement of paper PMC12297408.

In this experiment the test system is Plasmodium falciparum NF54/iGP1_RE9H ulg8 stage V gametocytes. The experiment is described as follows: gametocyte viability (luciferase signal relative to DMSO control) (% of DMSO control); higher = less gametocytocidal activity, active = 50 or less. To be noted: exposure time: 72 h. In outline:
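Gametocyte viability is reported relative to the average of DMSO vehicle wells on the same plate. The assay used day-12 stage V NF54/iGP1_RE9Hulg8 gametocytes at ~2.5% gametocytemia and 3% hematocrit, in 0.5% Albumax II medium, added to 96-well plates of compounds spotted in nanolitre volumes for final 10 µM or 1 µM, one well each. After 72 h at 37 °C, 90 µl was mixed with 10 µl D-luciferin (30 mg/ml), and luminescence was recorded with an IVIS Lumina II.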

The structures appear in SMILES notation. Counter-ions that a name gives are not always drawn. The campaign covered roughly 1,300 compounds. About 40 (3%) showed activity. Some of the results follow.

On to `CN1C[C@H](CNC(=O)OCc2ccccc2)C[C@@H]2c3cccc4c3c(cn4C)C[C@H]21` [Metergoline], for which the gametocyte viability is inactive: 91.9 (concentration: 1 µM) and inactive: 76.2 (concentration: 10 µM).

In the case of `CC(C)c1cccc(C(C)C)c1O` [Propofol], the gametocyte viability is, setting by setting: (concentration: 1 µM) inactive: 88.4; (concentration: 10 µM) inactive: 83.7.

Take `C[C@]12CC[C@H](O)C[C@H]1CC[C@@H]1[C@@H]2CC[C@]2(C)[C@@H](C3=CC(=O)OC3)CC[C@]12O` [Digitoxigenin]: the gametocyte viability (concentration: 1 µM) is inactive: 69.6 and the gametocyte viability (concentration: 10 µM) is inactive: 68.6.

Take `CC[N+]1(C)CCCC(OC(=O)C(O)(c2ccccc2)c2ccccc2)C1` (stereo unspecified) [Pipenzolate bromide]: the gametocyte viability was inactive: 87.5 (concentration: 1 µM) and inactive: 83.4 (concentration: 10 µM).

On to `c1ccc2c(c1)OCC(C1=NCCN1)O2` (stereo unspecified) [Idazoxan hydrochloride], for which the gametocyte viability was inactive: 97.6 (concentration: 1 µM) and inactive: 96.1 (concentration: 10 µM).

`CCCCCC[C@H]1C(=O)O[C@H](C)[C@H](NC(=O)c2cccc(NC=O)c2O)C(=O)O[C@@H](C)[C@@H]1OC(=O)CC(C)C` [Antimycin A]: the gametocyte viability (concentration: 1 µM) is inactive: 86.4 and the gametocyte viability (concentration: 10 µM) is inactive: 94.3.

As for `COc1cc2c(c(OC)c1OC)-c1ccc(OC)c(=O)cc1[C@@H](NC(C)=O)CC2` [Colchicine], the gametocyte viability was inactive: 91.5 (concentration: 1 µM) and inactive: 92.5 (concentration: 10 µM).

On to `CC1C=CC=CCCC=CC=CC=CC=CC(OC2OC(C)C(O)C(N)C2O)CC2OC(O)(CC(O)C(O)CCC(O)CC(O)CC(O)CC(=O)OC(C)C(C)C1O)CC(O)C2C(=O)O` (stereo unspecified) [Nystatine], for which the gametocyte viability is, setting by setting: (concentration: 1 µM) inactive: 84.3; (concentration: 10 µM) inactive: 88.1.

With `O=c1[nH]oc2c1CCNC2` [THIP Hydrochloride], the gametocyte viability is, setting by setting: (concentration: 1 µM) inactive: 88; (concentration: 10 µM) inactive: 94.1.

As for `Cc1cc(C(C#N)c2ccc(Cl)cc2)c(Cl)cc1NC(=O)c1cc(I)cc(I)c1O` (stereo unspecified) [Closantel], the gametocyte viability (concentration: 1 µM) is inactive: 100 and the gametocyte viability (concentration: 10 µM) was inactive: 105.

Regarding `C[C@@H]1C[C@@H]([C@H](O)CC2CC(=O)NC(=O)C2)C(=O)[C@@H](C)C1` [Cycloheximide], the gametocyte viability is inactive: 81.8 (concentration: 1 µM) and inactive: 78.9 (concentration: 10 µM).

Regarding `CC[C@@H](CO)NC(=O)[C@@H]1C=C2c3cccc4[nH]cc(c34)C[C@H]2N(C)C1` [Methylergometrine maleate], the gametocyte viability runs as follows: (concentration: 1 µM) inactive: 81.1; (concentration: 10 µM) inactive: 79.9.

Turning to `CC(O)(CS(=O)(=O)c1ccc(F)cc1)C(=O)Nc1ccc(C#N)c(C(F)(F)F)c1` (stereo unspecified) [Bicalutamide], the gametocyte viability (concentration: 1 µM) was inactive: 87.3 and the gametocyte viability (concentration: 10 µM) was inactive: 75.9.

For `CCOC(=O)c1cncn1[C@H](C)c1ccccc1` [Etomidate], the gametocyte viability (concentration: 1 µM) was inactive: 87.9 and the gametocyte viability (concentration: 10 µM) was inactive: 81.

Turning to `O=C(CCCN1CCC2(CC1)C(=O)NCN2c1ccccc1)c1ccc(F)cc1` [Spiperone], the gametocyte viability is inactive: 86.4 (concentration: 1 µM) and inactive: 87.6 (concentration: 10 µM).

Turning to `CC(N)C(O)c1ccccc1` (stereo unspecified) [Phenylpropanolamine hydrochloride], the gametocyte viability (concentration: 1 µM) was inactive: 84 and the gametocyte viability (concentration: 10 µM) was inactive: 86.2.

Take `C=C1CC[C@@]2(O)[C@H]3Cc4ccc(O)c5c4[C@@]2(CCN3CC2CC2)[C@H]1O5` [Nalmefene hydrochloride]: the gametocyte viability runs as follows: (concentration: 1 µM) inactive: 97.6; (concentration: 10 µM) inactive: 95.3.

With `O=[N+]([O-])O[C@H]1CO[C@H]2[C@@H]1OC[C@H]2O[N+](=O)[O-]` [Isosorbide dinitrate], the gametocyte viability runs as follows: (concentration: 1 µM) inactive: 85.6; (concentration: 10 µM) inactive: 82.1.

Consider `NCC1(CC(=O)O)CCCCC1` [Gabapentin], for which the gametocyte viability reads like this: (concentration: 1 µM) inactive: 96.8; (concentration: 10 µM) inactive: 93.9.

As to `N[C@@H]1C[C@H]1c1ccccc1` [Tranylcypromine hydrochloride], the gametocyte viability was inactive: 92.6 (concentration: 1 µM) and inactive: 91.8 (concentration: 10 µM).

As for `NCC(CC(=O)O)c1ccc(Cl)cc1` (racemic) [Baclofen (R,S)], the gametocyte viability is inactive: 89.5 (concentration: 1 µM) and inactive: 81.8 (concentration: 10 µM).

`C#C[C@]1(O)CC[C@H]2[C@@H]3CCC4=CC(=O)CCC4=C3C=C[C@@]21CC` [Gestrinone]: the gametocyte viability (concentration: 1 µM) is inactive: 86.6 and the gametocyte viability (concentration: 10 µM) was inactive: 74.2.

For the compound `CN1[C@@H]2C[C@@H](OC(=O)[C@H](CO)c3ccccc3)C[C@H]1[C@@H]1O[C@@H]12` [Scopolamine hydrochloride], the gametocyte viability (concentration: 1 µM) was inactive: 95.7 and the gametocyte viability (concentration: 10 µM) is inactive: 94.5.

For the compound `CN1CCC2(C)c3cc(O)ccc3N(C)C12` (single isomer, unassigned; (-)) [(-)-Eseroline fumarate salt], the gametocyte viability is inactive: 74.2 (concentration: 1 µM) and active: 44.8 (concentration: 10 µM).

Turning to `CC(NC(C)(C)C)C(=O)c1cccc(Cl)c1` (stereo unspecified) [Bupropion hydrochloride], the gametocyte viability is inactive: 88.1 (concentration: 1 µM) and inactive: 88.6 (concentration: 10 µM).

On to `CN(C)[C@@H]1C(=O)C(C(N)=O)=C(O)[C@@]2(O)C(=O)C3=C(O)c4c(O)cccc4[C@@](C)(O)[C@H]3C[C@@H]12` [Tetracycline hydrochloride], for which the gametocyte viability was inactive: 93 (concentration: 1 µM) and inactive: 90.3 (concentration: 10 µM).

Take `CN[C@@H]1[C@@H](O)[C@@H](O[C@@H]2[C@@H](O)[C@H](O[C@H]3O[C@H](CN)CC[C@H]3N)[C@@H](N)C[C@H]2N)OC[C@]1(C)O.CN[C@@H]1[C@@H](O)[C@@H](O[C@@H]2[C@@H](O)[C@H](O[C@H]3O[C@H]([C@@H](C)N)CC[C@H]3N)[C@@H](N)C[C@H]2N)OC[C@]1(C)O.CN[C@@H]1[C@@H](O)[C@@H](O[C@@H]2[C@@H](O)[C@H](O[C@H]3O[C@H]([C@@H](C)NC)CC[C@H]3N)[C@@H](N)C[C@H]2N)OC[C@]1(C)O` [Gentamicine sulfate]: the gametocyte viability is inactive: 90.6 (concentration: 1 µM) and inactive: 99.8 (concentration: 10 µM).

`O=C1CC[C@@]2(O)[C@H]3Cc4ccc(O)c5c4[C@@]2(CCN3CC2CC2)[C@H]1O5` [Naltrexone hydrochloride dihydrate]: the gametocyte viability reads like this: (concentration: 1 µM) inactive: 93.5; (concentration: 10 µM) inactive: 91.9.

For the compound `CC(=O)O[C@H]1C[C@@H]2CC[C@@H]3[C@H](CC[C@@]4(C)[C@H]3C[C@H]([N+]3(C)CCCCC3)[C@@H]4OC(C)=O)[C@@]2(C)C[C@@H]1[N+]1(C)CCCCC1` [Pancuronium bromide], the gametocyte viability is inactive: 83.1 (concentration: 1 µM) and inactive: 82.2 (concentration: 10 µM).

Regarding `c1ccc2c(c1)Nc1ccccc1S2` [Phenothiazine], the gametocyte viability runs as follows: (concentration: 1 µM) inactive: 79.5; (concentration: 10 µM) inactive: 81.

Take `O=c1c2ccccc2[se]n1-c1ccccc1` [Ebselen]: the gametocyte viability (concentration: 1 µM) was inactive: 81.8 and the gametocyte viability (concentration: 10 µM) is inactive: 89.4.

Regarding `C[C@]12CCC(=O)C=C1C=C[C@@H]1[C@@H]2CC[C@@]2(C)[C@H]1CC[C@@]2(O)CCC(=O)O` [Canrenoic acid potassium salt], the gametocyte viability reads like this: (concentration: 1 µM) inactive: 83.5; (concentration: 10 µM) inactive: 82.3.

As for `C(#CCN1CCCC1)CN1CCCC1` [Tremorine dihydrochloride], the gametocyte viability runs as follows: (concentration: 1 µM) inactive: 91.5; (concentration: 10 µM) inactive: 94.7.

On to `C=CCN1CC[C@]23c4c5ccc(O)c4O[C@H]2C(=O)CC[C@@]3(O)[C@H]1C5` [Naloxone hydrochloride], for which the gametocyte viability was inactive: 86.4 (concentration: 1 µM) and inactive: 84.5 (concentration: 10 µM).

`CCCC(C)C1(CC)C(=O)NC(=O)NC1=O` (stereo unspecified) [Pentobarbital]: the gametocyte viability (concentration: 1 µM) is inactive: 98.2 and the gametocyte viability (concentration: 10 µM) is inactive: 91.6.

Regarding `CN[C@@H]1C[C@@H](c2ccc(Cl)c(Cl)c2)c2ccccc21` [Indatraline hydrochloride], the gametocyte viability (concentration: 1 µM) was inactive: 85.6 and the gametocyte viability (concentration: 10 µM) is inactive: 51.6.

As to `CN1[C@@H]2CC[C@H]1C[C@@H](OC(=O)[C@H](CO)c1ccccc1)C2` [Hyoscyamine (L)], the gametocyte viability (concentration: 1 µM) is inactive: 86.7 and the gametocyte viability (concentration: 10 µM) is inactive: 91.7.

In the case of `CC(C)N(CCC(C(N)=O)(c1ccccc1)c1ccccn1)C(C)C` (stereo unspecified) [Disopyramide], the gametocyte viability was inactive: 87 (concentration: 1 µM) and inactive: 90.6 (concentration: 10 µM).

As for `C[C@H](N)[C@H](O)c1ccc(O)c(O)c1` [Levonordefrin], the gametocyte viability by setting is: (concentration: 1 µM) inactive: 89; (concentration: 10 µM) inactive: 93.9.

For the compound `O=[N+]([O-])O[C@@H]1CO[C@H]2[C@@H]1OC[C@@H]2O` [Isosorbide mononitrate], the gametocyte viability is inactive: 94.9 (concentration: 1 µM) and inactive: 98.5 (concentration: 10 µM).

As for `C[C@]12CC[C@H]3[C@@H](CCC4=CC(=O)CC[C@@H]43)[C@@H]1CC[C@@H]2O` [Nandrolone], the gametocyte viability runs as follows: (concentration: 1 µM) inactive: 90.9; (concentration: 10 µM) inactive: 74.

As for `COc1ccc(CN2CCNCC2)c(OC)c1OC` [Trimetazidine dihydrochloride], the gametocyte viability reads like this: (concentration: 1 µM) inactive: 84.5; (concentration: 10 µM) inactive: 87.6.

In the case of `S=C(NC1CCCCC1)N1CCC(c2cnc[nH]2)CC1` [Thioperamide maleate], the gametocyte viability is inactive: 91.6 (concentration: 1 µM) and inactive: 79.7 (concentration: 10 µM).

Consider `CC(C)CC(N(C)C)C1(c2ccc(Cl)cc2)CCC1` (stereo unspecified) [Sibutramine HCl], for which the gametocyte viability reads like this: (concentration: 1 µM) inactive: 93.7; (concentration: 10 µM) inactive: 94.8.

As to `O=c1[nH]c2ccccc2n1CCCN1CCC(n2c(=O)[nH]c3cc(Cl)ccc32)CC1` [Domperidone], the gametocyte viability is, setting by setting: (concentration: 1 µM) inactive: 83.2; (concentration: 10 µM) inactive: 75.

For `CC(C)[N+](C)(CCC(C(N)=O)(c1ccccc1)c1ccccc1)C(C)C` [Isopropamide iodide], the gametocyte viability reads like this: (concentration: 1 µM) inactive: 82.4; (concentration: 10 µM) inactive: 90.3.

As to `C#C[C@]1(O)CC[C@H]2[C@@H]3CCC4=CC(=O)CC[C@]4(C)[C@H]3CC[C@@]21C` [Ethisterone], the gametocyte viability is inactive: 96 (concentration: 1 µM) and inactive: 96.1 (concentration: 10 µM).

Consider `CNCC(O)c1ccc(O)cc1` (racemic) [(+,-)-Synephrine], for which the gametocyte viability is inactive: 80.4 (concentration: 1 µM) and inactive: 84 (concentration: 10 µM).

For `C[C@]12CC[C@@H](O)C[C@@H]1CC[C@@H]1[C@@H]2CC[C@]2(C)C(=O)CC[C@@H]12` [Androsterone], the gametocyte viability was inactive: 89 (concentration: 1 µM) and inactive: 85.4 (concentration: 10 µM).

Regarding `C=CC[C@]1(O)CC[C@H]2[C@@H]3CCC4=CC(=O)CCC4=C3C=C[C@@]21C` [Altrenogest], the gametocyte viability is inactive: 56.8 (concentration: 1 µM) and active: 33.1 (concentration: 10 µM).

Turning to `CC(Cc1ccc(O)cc1)NCC(O)c1cc(O)cc(O)c1` (stereo unspecified) [Fenoterol hydrobromide], the gametocyte viability reads like this: (concentration: 1 µM) inactive: 79.6; (concentration: 10 µM) inactive: 89.2.

For the compound `C1CCc2nnnn2CC1` [Pentylenetetrazole], the gametocyte viability (concentration: 1 µM) is inactive: 80.8 and the gametocyte viability (concentration: 10 µM) was inactive: 82.8.

With `COc1ccc2c(c1)[C@]13CCCC[C@@H]1[C@H](C2)N(C)CC3` [Dextromethorphan hydrobromide monohydrate], the gametocyte viability reads like this: (concentration: 1 µM) inactive: 76.5; (concentration: 10 µM) inactive: 84.7.
